# The whole screen tested about 54,000 compounds, of which about 120 (0.22%) were called active. The shares of active, inactive and inconclusive entries below differ from those in the screen. Calls follow the shape of the dose curve; as a rule, active = well fitted inhibition curve with a large enough effect; inconclusive = small, poorly fitted or top-dose-only effect, or effect the other way; inactive = flat fitted curve, though single readings scatter. Potencies of inconclusive entries are left out as doubtful fits.
# Molecular target: Fumarate hydratase, mitochondrial (Homo sapiens) (UniProt P07954)
# Sequence of UniProt P07954 (P07954 whole entry, looked up): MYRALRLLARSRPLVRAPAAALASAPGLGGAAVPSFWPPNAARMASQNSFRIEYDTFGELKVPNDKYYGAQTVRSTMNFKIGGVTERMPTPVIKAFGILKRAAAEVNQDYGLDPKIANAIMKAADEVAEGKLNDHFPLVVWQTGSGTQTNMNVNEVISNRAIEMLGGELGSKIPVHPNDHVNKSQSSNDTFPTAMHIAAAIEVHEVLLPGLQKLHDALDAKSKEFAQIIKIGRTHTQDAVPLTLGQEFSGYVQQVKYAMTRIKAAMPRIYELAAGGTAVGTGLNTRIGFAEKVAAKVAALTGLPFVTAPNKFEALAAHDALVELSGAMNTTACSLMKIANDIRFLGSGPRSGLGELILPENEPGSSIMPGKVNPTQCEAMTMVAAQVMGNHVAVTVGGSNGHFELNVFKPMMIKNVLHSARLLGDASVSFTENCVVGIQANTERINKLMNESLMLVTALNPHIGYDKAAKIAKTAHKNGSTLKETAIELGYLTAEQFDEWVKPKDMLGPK
# Test: Identification of activators of human fumarate hydratase by quantitative high-throughput screening; also: the screen sought activators but most active calls are inhibition curves; nearly all actives have a fitted effect of over 45% in size
# Details: FH coupled MDH/diaphorase resazurin fluorescence, 15 min; activity change, negative = inhibition: at 79.9 µM (top of the series)
# % is scaled to controls: 0 for no effect and ±100 for the full control effect; potency is read from the fitted curve at half-maximal effect; tags tell the direction and shape of the fitted curve.
Compound,Potency,"activity change, negative = inhibition"
O=C1c2c(O)ccc(O)c2C(=O)c2c(NCCNCCO)ccc(NCCNCCO)c21,"inconclusive [inhibitor, single point]",–
COC(=O)c1ccc(Nc2nc(-c3ccc(C)cc3)nc3ccccc23)cc1,"inconclusive [inhibitor, partial curve]",–
COc1cc(C(=O)N2CCc3c([nH]c4ccccc34)C2c2ccc(F)cc2)cc(OC)c1OC (stereo not drawn),"inconclusive [inhibitor, partial curve, poor fit]",–
CC1=Nc2cc(C(=O)NC3CCC(C)CC3)ccc2Sc2c(C)ccc(C)c21 (stereo not drawn),"inconclusive [inhibitor, single point]",–
CCN(CC)S(=O)(=O)c1ccc2c(c1)c(=O)c(C(=O)NCCc1ccc(OC)c(OC)c1)cn2C,"inconclusive [inhibitor, partial curve, poor fit]",–
CCc1ccc(-n2c(C)nc3cc(C(=O)NCCc4ccccc4)ccc32)cc1,"inconclusive [inhibitor, partial curve]",–
Cc1ccc(Nc2nccc(N(C)c3ccc4c(C)n(C)nc4c3)n2)cc1S(N)(=O)=O,inactive,–
Cc1cccc(Cn2c(C)c(C)c3cc(C(=O)NCc4ccc(C)o4)ccc32)c1,"inconclusive [inhibitor, partial curve, poor fit]",–
CCOc1ccc(CCNC(=O)c2cc3c(-c4cccc(OC)c4)nn(C)c3s2)cc1OCC,"inconclusive [inhibitor, partial curve]",–
COc1ccc(-c2cccc(NS(=O)(=O)c3cc(C)c(Cl)cc3C)c2)nn1,"inconclusive [inhibitor, single point]",–
Cc1ccc2nc(/C(C#N)=C/c3ccc(-c4cccc(Cl)c4)o3)[nH]c2c1,inactive,–
CCc1ccc(/C=C2/SC(=S)NC2=O)cc1,active: 15.8 µM,–
O=S(=O)(Nc1nc2n(n1)C(c1ccccc1)C=C(c1ccc(Cl)cc1)N2)c1ccccc1 (stereo not drawn),"inconclusive [inhibitor, partial curve, poor fit]",–
CCN1C(=O)CC(C(=O)Nc2ccc(OC)cc2)SC1=Nc1ccc(C)c(C)c1 (stereo not drawn),inactive,–
O=C(Cn1cc(SCc2ccccc2Cl)c2ccccc21)N1CCCCCC1,"inconclusive [inhibitor, partial curve, poor fit]",–
COc1ccc(OC)c(CNS(=O)(=O)c2ccc(-c3cc(C(F)(F)F)on3)s2)c1,"inconclusive [inhibitor, single point]",–
Cc1ccc(SCC(=O)Nc2ccc3oc(-c4cccc(C)c4)nc3c2)cc1,"inconclusive [inhibitor, partial curve, poor fit]",–
COc1ccc(-n2c(=O)c3c4c(sc3n(Cc3cc(=O)n5c(C)cccc5n3)c2=O)CCC4)c(OC)c1,"inconclusive [inhibitor, partial curve, poor fit]",–
COc1cc(NC(=O)C2=C(C)Nc3nnnn3C2c2ccc(SC)cc2)c(OC)cc1Cl (stereo not drawn),"inconclusive [inhibitor, single point]",–

Compound,Potency,"activity change, negative = inhibition"
COc1ccc(NC(=O)c2c(NCc3ccc(C)o3)sc3c2CCC(C)C3)cc1 (stereo not drawn),"inconclusive [inhibitor, single point]",–
O=C(NCCCN1CCN(c2ccc(F)cc2)CC1)c1cc2c(s1)-c1ccccc1OC2,"inconclusive [inhibitor, partial curve]",–
Cc1ccc(Nc2c(-c3ccc(N(C)C)cc3)nc3ccccn23)cc1,"inconclusive [inhibitor, partial curve]",–
COc1ccc(-c2[nH]c(-c3ccc(OC)c(OC)c3)nc2SCC(=O)Nc2ccccc2)cc1,"inconclusive [inhibitor, single point]",–
CC(=O)c1ccc(N2CCN(C(=O)CS(=O)(=O)c3cccc4nsnc34)CC2)cc1,inactive,–
CCOC(=O)N1CCc2c(sc(NCc3ccc(OC)c(Br)c3)c2C(=O)Nc2cc(OC)ccc2OC)C1,"inconclusive [inhibitor, partial curve, poor fit]",–
COc1ccc(-c2nc(CCNC(=O)c3cc(OC)c(OC)c(OC)c3)cs2)cc1,"inconclusive [inhibitor, single point]",–
C#CC1(O)CC[C@H]2[C@@H]3CCC4=CCCC[C@@H]4[C@H]3CC[C@@]21C (stereo partly drawn),inactive,–
COc1ccccc1-c1c(C)nn2c(N3CCN(c4ccc(Cl)cc4)CC3)cc(C)nc12,inactive,–
Cc1cc(Nc2ncnc3ccc(NC4=NC(C)(C)CO4)cc23)ccc1Oc1ccn2ncnc2c1,inactive,–
Cc1cccc(Oc2nc3c(C)cccn3c(=O)c2/C=C(\C#N)c2nc3ccccc3s2)c1,"inconclusive [inhibitor, partial curve, poor fit]",–
CCOc1ccc(N2CC(c3nc4ccccc4n3CCCOc3ccc(OC)cc3)CC2=O)cc1 (stereo not drawn),"inconclusive [inhibitor, partial curve, poor fit]",–
Cc1ccc(CSc2nc(=O)c3c(C)cc(C)nc3n2C2CC2)cc1,–,inconclusive: -49.1% [inhibitor]
CC(=O)c1cc(-c2ccccc2)n(CCC(=O)Nc2nc3c(C)cccc3s2)c1C,inactive,–
CC1OC(OCC2OC(OC3CCC4(C)C(CCC5(C)C4CC=C4C6CC(C)(C)CCC6(C(=O)OC6OC(CO)C(O)C(O)C6O)CCC45C)C3(C)CO)C(O)C(O)C2O)C(O)C(O)C1O (stereo not drawn),inactive,–
CCc1nc2ccc(C(=O)NCCc3ccc(OC)cc3OC)cc2nc1CC,–,inconclusive: -36.2% [inhibitor]
Cc1ccc(CNC(=O)c2cccc(Nc3nc4ccccc4n4nnnc34)c2)cc1,inactive,–
N#Cc1ccccc1NC(=O)C(=O)NCC(c1cccnc1)N1CCc2ccccc21 (stereo not drawn),"inconclusive [inhibitor, partial curve, poor fit]",–
CCNC(=O)Nc1ccc(-c2nc3c(c(N4CCOC[C@@H]4C)n2)CCN(c2ncccn2)C3)cc1,"inconclusive [inhibitor, partial curve, poor fit]",–

# — PubChem BioAssay AID1347055 (National Center for Advancing Translational Sciences (NCATS), 2019)
